No constants are given. Whether binding was seen depends on the method and setting. For some of these results: In cells and extracts the contact can be indirect. Some binding calls cover weakened binding; strength is not graded here. Tags and fused reporters may be left off the sequences shown.

Binding data for two molecules are collected here from paper PMC3297496.

Assay [1] deals with T1, GST:GPA-14 fusion protein (C. elegans) (UniProt Q9BIG2).
T1 sequence: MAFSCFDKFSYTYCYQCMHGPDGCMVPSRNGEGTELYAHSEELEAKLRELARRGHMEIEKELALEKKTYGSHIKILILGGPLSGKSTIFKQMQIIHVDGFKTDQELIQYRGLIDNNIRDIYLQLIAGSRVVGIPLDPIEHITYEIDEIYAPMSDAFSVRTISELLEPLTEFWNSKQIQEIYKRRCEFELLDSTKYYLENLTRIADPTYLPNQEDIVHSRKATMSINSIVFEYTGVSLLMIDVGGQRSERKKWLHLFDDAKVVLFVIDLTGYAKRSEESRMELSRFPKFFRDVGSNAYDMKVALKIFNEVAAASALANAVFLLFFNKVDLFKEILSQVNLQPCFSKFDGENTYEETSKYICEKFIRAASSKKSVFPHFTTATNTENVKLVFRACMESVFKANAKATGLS
The assay is described as follows: pull-down; GST pull-down: purified GST fusion (5 ul eluted) with 20 ul in-vitro translated DOP-2XL in binding buffer with 0.2% BSA, 6 hrs at 4°C, Magne-GST particles, SDS-PAGE, colorimetric detection of biotinylated lysine; only the target purified.

Assay [2] has as its target T2, GST:GPA-15 fusion protein (C. elegans) (UniProt P91907).
T2 sequence: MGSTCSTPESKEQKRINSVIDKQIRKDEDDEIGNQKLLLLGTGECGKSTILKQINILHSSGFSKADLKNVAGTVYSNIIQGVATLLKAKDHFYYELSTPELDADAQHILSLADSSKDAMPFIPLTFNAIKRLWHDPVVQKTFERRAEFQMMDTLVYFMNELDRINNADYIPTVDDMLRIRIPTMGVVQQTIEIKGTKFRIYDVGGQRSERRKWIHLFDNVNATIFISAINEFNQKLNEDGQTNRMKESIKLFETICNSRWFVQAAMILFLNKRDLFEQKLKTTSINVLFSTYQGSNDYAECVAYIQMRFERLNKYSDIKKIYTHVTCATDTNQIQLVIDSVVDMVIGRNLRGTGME
The assay is described as above.

Assay [3] has as its target T3, DOP-2IL-CIII (DOP-2XL amino acids 224-849), split-ubiquitin bait in pBT3-SUC (C. elegans) (UniProt E7EM37).
T3 sequence: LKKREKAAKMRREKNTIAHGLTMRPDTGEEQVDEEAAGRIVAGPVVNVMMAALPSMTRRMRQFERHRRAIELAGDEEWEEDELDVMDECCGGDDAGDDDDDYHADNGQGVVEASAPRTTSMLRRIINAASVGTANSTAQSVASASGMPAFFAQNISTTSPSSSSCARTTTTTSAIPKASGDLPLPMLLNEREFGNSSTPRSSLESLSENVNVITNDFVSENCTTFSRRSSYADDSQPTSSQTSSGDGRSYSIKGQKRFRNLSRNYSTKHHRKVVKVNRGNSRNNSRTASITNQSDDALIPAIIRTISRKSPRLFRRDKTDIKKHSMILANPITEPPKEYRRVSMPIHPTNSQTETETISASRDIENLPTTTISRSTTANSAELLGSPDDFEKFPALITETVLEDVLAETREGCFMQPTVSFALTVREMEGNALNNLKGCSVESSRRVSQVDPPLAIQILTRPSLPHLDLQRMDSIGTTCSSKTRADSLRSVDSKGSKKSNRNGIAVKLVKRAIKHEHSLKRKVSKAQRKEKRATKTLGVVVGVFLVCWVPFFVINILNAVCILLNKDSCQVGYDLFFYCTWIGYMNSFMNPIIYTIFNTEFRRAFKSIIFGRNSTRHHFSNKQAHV
The assay is described as follows: two-hybrid; split-ubiquitin pair-wise assay in yeast: DOP-2XL baits (full length in pBT3-STE, truncations in pBT3-SUC) with NubG preys (pPR3-N, pPR3-STE, pDL2-Alg5); growth on SD/-Ade-His-Leu-Trp with 1 mM 3-AT and X-gal filter assay.

The target of assay [4] is T4, DOP-2IL-CII (DOP-2XL amino acids 124-849), split-ubiquitin bait in pBT3-SUC (C. elegans) (UniProt E7EM37).
T4 sequence: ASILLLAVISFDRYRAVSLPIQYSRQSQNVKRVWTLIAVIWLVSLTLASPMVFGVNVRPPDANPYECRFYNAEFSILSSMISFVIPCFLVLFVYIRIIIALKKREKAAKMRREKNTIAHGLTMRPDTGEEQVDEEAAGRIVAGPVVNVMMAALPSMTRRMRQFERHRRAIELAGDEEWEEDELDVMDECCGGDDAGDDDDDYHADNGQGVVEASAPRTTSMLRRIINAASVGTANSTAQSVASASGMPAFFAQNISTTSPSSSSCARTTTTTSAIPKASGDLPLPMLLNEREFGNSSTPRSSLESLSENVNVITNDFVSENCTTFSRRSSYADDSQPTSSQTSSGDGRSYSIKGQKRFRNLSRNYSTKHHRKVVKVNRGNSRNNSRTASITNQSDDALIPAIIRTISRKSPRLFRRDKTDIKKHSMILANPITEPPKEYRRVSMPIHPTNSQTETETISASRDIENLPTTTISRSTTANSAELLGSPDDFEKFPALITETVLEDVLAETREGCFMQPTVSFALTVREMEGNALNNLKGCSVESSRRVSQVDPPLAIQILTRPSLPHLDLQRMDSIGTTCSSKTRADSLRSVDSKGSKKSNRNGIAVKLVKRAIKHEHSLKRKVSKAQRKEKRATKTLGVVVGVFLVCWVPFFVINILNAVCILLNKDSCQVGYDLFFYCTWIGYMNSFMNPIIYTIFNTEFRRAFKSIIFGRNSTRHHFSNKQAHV
Described as above.

Assay [5] has as its target T5, C. elegans D2-like dopamine receptor DOP-2XL, full-length split-ubiquitin bait (dop-2c in pBT3-STE) (C. elegans) (UniProt E7EM37).
T5 sequence: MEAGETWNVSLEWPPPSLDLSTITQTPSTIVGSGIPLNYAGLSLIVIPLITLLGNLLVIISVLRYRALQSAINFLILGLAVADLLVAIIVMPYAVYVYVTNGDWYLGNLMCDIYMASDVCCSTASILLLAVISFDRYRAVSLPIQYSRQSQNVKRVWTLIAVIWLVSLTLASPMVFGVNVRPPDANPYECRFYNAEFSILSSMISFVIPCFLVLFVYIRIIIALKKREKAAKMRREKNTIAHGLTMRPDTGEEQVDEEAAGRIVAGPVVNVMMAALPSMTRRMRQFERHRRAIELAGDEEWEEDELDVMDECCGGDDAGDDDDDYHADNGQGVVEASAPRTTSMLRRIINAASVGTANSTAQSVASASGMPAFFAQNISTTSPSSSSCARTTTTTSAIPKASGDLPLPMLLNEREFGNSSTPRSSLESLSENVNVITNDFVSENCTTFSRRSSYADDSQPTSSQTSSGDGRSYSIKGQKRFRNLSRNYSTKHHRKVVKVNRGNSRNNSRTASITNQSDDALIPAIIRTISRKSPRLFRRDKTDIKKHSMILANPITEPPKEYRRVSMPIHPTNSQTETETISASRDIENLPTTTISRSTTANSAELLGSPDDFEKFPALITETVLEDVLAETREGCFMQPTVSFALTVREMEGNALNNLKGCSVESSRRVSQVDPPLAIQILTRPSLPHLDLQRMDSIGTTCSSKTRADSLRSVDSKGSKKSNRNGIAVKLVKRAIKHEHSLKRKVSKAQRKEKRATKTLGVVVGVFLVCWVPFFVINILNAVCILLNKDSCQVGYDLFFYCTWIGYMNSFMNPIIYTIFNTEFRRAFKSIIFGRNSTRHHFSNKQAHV
The description is as above.

Assay [6] concerns the target T6, DOP-2IL-CI (DOP-2XL amino acids 64-849), split-ubiquitin bait in pBT3-SUC (C. elegans) (UniProt E7EM37).
T6 sequence: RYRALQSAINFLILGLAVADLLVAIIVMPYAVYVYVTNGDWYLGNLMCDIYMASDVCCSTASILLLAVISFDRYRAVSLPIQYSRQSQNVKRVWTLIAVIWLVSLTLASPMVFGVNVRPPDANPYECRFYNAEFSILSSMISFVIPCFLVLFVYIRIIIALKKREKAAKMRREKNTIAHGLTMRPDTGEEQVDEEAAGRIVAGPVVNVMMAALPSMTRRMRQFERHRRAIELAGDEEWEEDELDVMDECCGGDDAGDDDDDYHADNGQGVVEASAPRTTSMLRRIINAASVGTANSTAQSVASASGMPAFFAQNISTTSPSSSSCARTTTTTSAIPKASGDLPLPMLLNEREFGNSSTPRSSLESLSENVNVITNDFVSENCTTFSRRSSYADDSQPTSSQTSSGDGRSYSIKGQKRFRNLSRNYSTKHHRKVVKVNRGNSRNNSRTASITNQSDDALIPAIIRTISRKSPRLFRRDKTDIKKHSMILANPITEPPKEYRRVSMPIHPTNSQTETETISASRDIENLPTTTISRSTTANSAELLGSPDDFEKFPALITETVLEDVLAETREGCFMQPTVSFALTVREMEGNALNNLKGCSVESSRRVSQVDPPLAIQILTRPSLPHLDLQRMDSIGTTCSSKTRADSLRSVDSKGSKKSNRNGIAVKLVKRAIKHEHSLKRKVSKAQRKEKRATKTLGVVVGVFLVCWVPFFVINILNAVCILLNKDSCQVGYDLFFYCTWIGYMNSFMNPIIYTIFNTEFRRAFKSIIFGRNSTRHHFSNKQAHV
The assay is described as above.

Assay [7] has as its target T7, DOP-2IL-CIV (DOP-2XL amino acids 821-849), split-ubiquitin bait in pBT3-SUC (C. elegans) (UniProt E7EM37).
T7 sequence: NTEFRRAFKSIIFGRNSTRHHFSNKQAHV
The assay is described as above.

B1: DOP-2XL, in-vitro translated (dop-2c in pIVEX2.3d) (receptor, UniProt E7EM37 1-849)
chain: T5 sequence
modifications: biotinylated lysine incorporated during translation (biotinylated lysyl-tRNA)
B1: the results for the binding entry in assay [1] and in assay [2] were “binds” and “no binding”, respectively.

B2: GPA-14, split-ubiquitin prey in pPR3-STE (NubG fusion) (protein, UniProt Q9BIG2 1-408)
chain: T1 sequence
On to B2, for which the binding entry was “binds weakly” in assay [3]; “binds” in assay [4]; “binds” in assay [5]; “binds” in assay [6]; “no binding” in assay [7].
